The values that follow come from PMC12820563, “FoxP3 forms a head-to-head dimer in vivo and stabilizes its multimerization on adjacent microsatellites”.

The other results are listed elsewhere or left out.

The target of this assay is T1, MBP-FoxP1dN (Mus musculus, UniProt P58462 326-579).
T1 sequence: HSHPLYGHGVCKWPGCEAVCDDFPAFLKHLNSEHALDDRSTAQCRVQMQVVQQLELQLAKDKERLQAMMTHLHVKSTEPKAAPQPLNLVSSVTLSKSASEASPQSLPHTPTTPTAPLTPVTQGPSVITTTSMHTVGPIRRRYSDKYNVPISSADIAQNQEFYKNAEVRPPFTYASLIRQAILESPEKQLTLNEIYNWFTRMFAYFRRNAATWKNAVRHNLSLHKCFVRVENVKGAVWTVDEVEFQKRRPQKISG
In words: PD-seq (MBP pull-down with sequencing); 20 mM Tris-HCl pH 7.5, 100 mM NaCl, 1.5 mM MgCl2, 0.4 uM protein, 0.1 uM dsDNA library, 30 min, room temperature, amylose pull-down; high values mean tight binding. Particulars: protein: recombinant; tags: His6-MBP; chain copies: 2; dsDNA, one strand shown. The gist of the method:
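Binding is given as reads-per-million enrichment, pull-down over input, with replicates pooled. The bait was an N-terminus-lacking mouse FoxP3 or FoxP1 fragment with a His6-MBP tag, expressed in E. coli and used at 0.4 µM with 0.1 µM Klenow-filled degenerate double-stranded DNA library for 30 min at room temperature in Tris pH 7.5 buffer with NaCl and MgCl2. Amylose resin pull-down with three washes was followed by proteinase K release, PCR barcoding and Illumina sequencing.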
Turning to “GATGATTGTTCTCCCAGCTGATGAATTGAGGGTATCGAGTAAACAAATTTTCCTAATCTTTCTGTTCAAGCGCCATCTAC”, the binding signal was 0.925 RPM ratio (pull-down/input).
Take “GATGATTGTTCTCCCAGCTGATGAATTGGGTGTTTCGAGTAAACAAATTTTCCTAATCTTTCTGTTCAAGCGCCATCTAC”: the binding signal was 0.993 RPM ratio (pull-down/input).
To “GATGATTGTTCTCCCAGCTGATGAATTGCCTCGGTCGAGTAAACAAATTTTCCTAATCTTTCTGTTCAAGCGCCATCTAC” belongs 0.887 RPM ratio (pull-down/input); to “GATGATTGTTCTCCCAGCTGATGAATTGTTCTTTTCGAGTAAACAAATTTTCCTAATCTTTCTGTTCAAGCGCCATCTAC”, 1.69 RPM ratio (pull-down/input).
Turning to “GATGATTGTTCTCCCAGCTGATGAATTTTATACATCGAGTAAACAAATTTTCCTAATCTTTCTGTTCAAGCGCCATCTAC”, the binding signal was 1.09 RPM ratio (pull-down/input).
To “GATGATTGTTCTCCCAGCTGATGAATTGCAGCTATCGAGTAAACAAATTTTCCTAATCTTTCTGTTCAAGCGCCATCTAC” belongs 1.15 RPM ratio (pull-down/input); to “GATGATTGTTCTCCCAGCTGATGAATTCATATGCTCGAGTAAACAAATTTTCCTAATCTTTCTGTTCAAGCGCCATCTAC”, 0.976 RPM ratio (pull-down/input).
To “GATGATTGTTCTCCCAGCTGATGAATTCTCGTATTCGAGTAAACAAATTTTCCTAATCTTTCTGTTCAAGCGCCATCTAC” belongs 1.04 RPM ratio (pull-down/input); to “GATGATTGTTCTCCCAGCTGATGAATTCTATGGATCGAGTAAACAAATTTTCCTAATCTTTCTGTTCAAGCGCCATCTAC”, 0.847 RPM ratio (pull-down/input); to “GATGATTGTTCTCCCAGCTGATGAATTGGACTAATCGAGTAAACAAATTTTCCTAATCTTTCTGTTCAAGCGCCATCTAC”, 0.999 RPM ratio (pull-down/input).
To “GATGATTGTTCTCCCAGCTGATGAATTAATTCGTTCGAGTAAACAAATTTTCCTAATCTTTCTGTTCAAGCGCCATCTAC” belongs 0.915 RPM ratio (pull-down/input); to “GATGATTGTTCTCCCAGCTGATGAATTCATGTTTTCGAGTAAACAAATTTTCCTAATCTTTCTGTTCAAGCGCCATCTAC”, 2.2 RPM ratio (pull-down/input); to “GATGATTGTTCTCCCAGCTGATGAATTCGCCAGGTCGAGTAAACAAATTTTCCTAATCTTTCTGTTCAAGCGCCATCTAC”, 0.761 RPM ratio (pull-down/input).
For the sequence “GATGATTGTTCTCCCAGCTGATGAATTACCGTGTTCGAGTAAACAAATTTTCCTAATCTTTCTGTTCAAGCGCCATCTAC”, the binding signal was 0.981 RPM ratio (pull-down/input).
Take “GATGATTGTTCTCCCAGCTGATGAATTGCCGACGTCGAGTAAACAAATTTTCCTAATCTTTCTGTTCAAGCGCCATCTAC”: the binding signal was 0.952 RPM ratio (pull-down/input).
As to “GATGATTGTTCTCCCAGCTGATGAATTCTTAACCTCGAGTAAACAAATTTTCCTAATCTTTCTGTTCAAGCGCCATCTAC”, the binding signal is 0.837 RPM ratio (pull-down/input).
For “GATGATTGTTCTCCCAGCTGATGAATTGGCACGTTCGAGTAAACAAATTTTCCTAATCTTTCTGTTCAAGCGCCATCTAC”, the binding signal is 0.908 RPM ratio (pull-down/input).
Take “GATGATTGTTCTCCCAGCTGATGAATTGGGTACATCGAGTAAACAAATTTTCCTAATCTTTCTGTTCAAGCGCCATCTAC”: the binding signal was 1.01 RPM ratio (pull-down/input).
Regarding “GATGATTGTTCTCCCAGCTGATGAATTGGATTGATCGAGTAAACAAATTTTCCTAATCTTTCTGTTCAAGCGCCATCTAC”, the binding signal is 0.946 RPM ratio (pull-down/input).
To “GATGATTGTTCTCCCAGCTGATGAATTATTTAGATCGAGTAAACAAATTTTCCTAATCTTTCTGTTCAAGCGCCATCTAC” belongs 1.57 RPM ratio (pull-down/input); to “GATGATTGTTCTCCCAGCTGATGAATTTTCCGGATCGAGTAAACAAATTTTCCTAATCTTTCTGTTCAAGCGCCATCTAC”, 0.817 RPM ratio (pull-down/input).
Turning to “GATGATTGTTCTCCCAGCTGATGAATTTGGCAACTCGAGTAAACAAATTTTCCTAATCTTTCTGTTCAAGCGCCATCTAC”, the binding signal was 1.03 RPM ratio (pull-down/input).
Regarding “GATGATTGTTCTCCCAGCTGATGAATTGAAATCGTCGAGTAAACAAATTTTCCTAATCTTTCTGTTCAAGCGCCATCTAC”, the binding signal is 0.824 RPM ratio (pull-down/input).
To “GATGATTGTTCTCCCAGCTGATGAATTAGTGTCGTCGAGTAAACAAATTTTCCTAATCTTTCTGTTCAAGCGCCATCTAC” belongs 0.949 RPM ratio (pull-down/input); to “GATGATTGTTCTCCCAGCTGATGAATTGGAGAACTCGAGTAAACAAATTTTCCTAATCTTTCTGTTCAAGCGCCATCTAC”, 0.834 RPM ratio (pull-down/input); to “GATGATTGTTCTCCCAGCTGATGAATTTACCTGATCGAGTAAACAAATTTTCCTAATCTTTCTGTTCAAGCGCCATCTAC”, 1.21 RPM ratio (pull-down/input).
To “GATGATTGTTCTCCCAGCTGATGAATTGGGTGGCTCGAGTAAACAAATTTTCCTAATCTTTCTGTTCAAGCGCCATCTAC” belongs 0.802 RPM ratio (pull-down/input); to “GATGATTGTTCTCCCAGCTGATGAATTGCAGGGATCGAGTAAACAAATTTTCCTAATCTTTCTGTTCAAGCGCCATCTAC”, 1.01 RPM ratio (pull-down/input); to “GATGATTGTTCTCCCAGCTGATGAATTTTCCTAATCGAGTAAACAAATTTTCCTAATCTTTCTGTTCAAGCGCCATCTAC”, 1.12 RPM ratio (pull-down/input).
Regarding “GATGATTGTTCTCCCAGCTGATGAATTGATCGCCTCGAGTAAACAAATTTTCCTAATCTTTCTGTTCAAGCGCCATCTAC”, the binding signal was 0.991 RPM ratio (pull-down/input).
To “GATGATTGTTCTCCCAGCTGATGAATTTGGGAGGTCGAGTAAACAAATTTTCCTAATCTTTCTGTTCAAGCGCCATCTAC” belongs 0.799 RPM ratio (pull-down/input); to “GATGATTGTTCTCCCAGCTGATGAATTGCCGTCGTCGAGTAAACAAATTTTCCTAATCTTTCTGTTCAAGCGCCATCTAC”, 0.968 RPM ratio (pull-down/input); to “GATGATTGTTCTCCCAGCTGATGAATTTTAAAGTTCGAGTAAACAAATTTTCCTAATCTTTCTGTTCAAGCGCCATCTAC”, 0.837 RPM ratio (pull-down/input).
To “GATGATTGTTCTCCCAGCTGATGAATTTATTCTTTCGAGTAAACAAATTTTCCTAATCTTTCTGTTCAAGCGCCATCTAC” belongs 1.34 RPM ratio (pull-down/input); to “GATGATTGTTCTCCCAGCTGATGAATTCATCGATTCGAGTAAACAAATTTTCCTAATCTTTCTGTTCAAGCGCCATCTAC”, 0.861 RPM ratio (pull-down/input); to “GATGATTGTTCTCCCAGCTGATGAATTACAACTGTCGAGTAAACAAATTTTCCTAATCTTTCTGTTCAAGCGCCATCTAC”, 1.35 RPM ratio (pull-down/input).
“GATGATTGTTCTCCCAGCTGATGAATTTGCTTACTCGAGTAAACAAATTTTCCTAATCTTTCTGTTCAAGCGCCATCTAC”: the binding signal was 1.69 RPM ratio (pull-down/input).
To “GATGATTGTTCTCCCAGCTGATGAATTAGTGCCCTCGAGTAAACAAATTTTCCTAATCTTTCTGTTCAAGCGCCATCTAC” belongs 0.849 RPM ratio (pull-down/input); to “GATGATTGTTCTCCCAGCTGATGAATTGCGTAGCTCGAGTAAACAAATTTTCCTAATCTTTCTGTTCAAGCGCCATCTAC”, 0.949 RPM ratio (pull-down/input).
Take “GATGATTGTTCTCCCAGCTGATGAATTTCGTGGGTCGAGTAAACAAATTTTCCTAATCTTTCTGTTCAAGCGCCATCTAC”: the binding signal is 0.786 RPM ratio (pull-down/input).
